Patent publication US5753516A, “Screening method for ligands of the EBI-1 receptor” (priority 1995, dated 1998)
Where two headings read alike, the source gives them in different places.

Columns and labels:
[1] = tested on: Jurkat cells; test: MET-ENK-FITC binding to Jurkat cells (flow cytometry, Scatchard); design: species or system human
[2] = tested on: NALM 6 cells; test: MET-ENK-FITC binding to NALM 6 cells (flow cytometry, Scatchard); design: species or system human
[3] = listed as methionine enkephalin

SMILES: CSCC[C@H](NC(=O)[C@H](Cc1ccccc1)NC(=O)CNC(=O)CNC(=O)[C@@H](N)Cc1ccc(O)cc1)C(=O)O [MET-ENK, Tyr-Gly-Gly-Phe-Met]
- Bmax, high affinity sites [1]: 9×10^2 sites/cell
- Bmax, high affinity sites [1, 3]: 9.0×10^2 sites/cell
- Bmax, high affinity sites [2]: 7.77×10^3 sites/cell
- Bmax, high affinity sites [2, 3]: 7.77×10^3 sites/cell
